Consider one molecule from patent publication US20200231654A1 (published 2020).

Read-outs that look alike come from different tables or passages of the source.

Test [1] addresses T1, active hMMP-9(cat)_His6 (UniProt P14780 107-449). The experiment in a line: enzyme inhibition; substrate peptide.
The target in test [2] is T1, active hMMP-9(cat)_His6. The experiment in a line: enzyme inhibition; substrate peptide. The source holds these as a separate data set.
T1 sequence (P14780 107-449): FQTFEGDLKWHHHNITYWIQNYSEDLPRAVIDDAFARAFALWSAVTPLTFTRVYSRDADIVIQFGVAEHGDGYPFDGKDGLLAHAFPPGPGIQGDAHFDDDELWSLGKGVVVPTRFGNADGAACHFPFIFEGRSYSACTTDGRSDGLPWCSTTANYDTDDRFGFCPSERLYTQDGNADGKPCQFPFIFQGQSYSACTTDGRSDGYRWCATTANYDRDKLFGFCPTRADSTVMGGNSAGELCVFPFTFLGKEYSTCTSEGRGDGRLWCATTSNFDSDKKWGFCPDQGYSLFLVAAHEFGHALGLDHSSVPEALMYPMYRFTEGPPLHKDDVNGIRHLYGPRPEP

B1: active MMP-9-binding peptide C-terminal conjugate M91005-Fc-01 (Fc fusion)
chain: GSGMKETAAAKFERQHMDSPDLGTDDDDKAMADIGSANSDPQFGLFSKYRTPNCRKRGGPSCQMSYNPVCGSDMSTYANECTLCMKIREGGHNIKIIRNGPCGASAAAGGGGS[… human IgG1 Fc …]
Turning to B1, the IC50 (in general, the point on the concentration scale where inhibition reaches its midpoint) came out at 4.5 nM with active hMMP-9(cat)_His6 [1] and 1.8 nM with active hMMP-9(cat)_His6 [2].
